Data from PMC12136788.
The list shows a part of the results.

B1: chr11:86132931:86132932:-_ENSMUSG00000034297_ENSMUST00000043624|mus_mus|motif|central (ssRNA)
RNA: GGGAGUUCUACAGUCCGACGAUCUCCAAAAGGUCCAACUGGAUCAUCCUUGAAUUUAUCAUUUGGAAGUUGAGGUGGUAAAAAUUCGGCAUCUUUUUUCUUUGGGACUUUGUAAUACUUCCAGGCUACAUUAGCUUCAUCUUCCAACAGAGGAUUGAGCAUCA
B2: 153258998_153268111_1986_CDS_ENSG00000109670_ENST00000281708|human|control|control (ssRNA)
RNA: GGGAGUUCUACAGUCCGACGAUCUAUCACUUGCAUCAUAUGUUUUACUUGUGUUGGUUCACAACUAUCAAUGAGUUCAUCUAAAGCAAGCAAUUUCUCUGGUCCACUCCAGCUCUGAAACAUUUUUAGCCAUUCCUGGAGGCCCAACAGAGGAUUGAGCAUCA
B3: chr16:74336126:74336127:+_ENSG00000103035_ENST00000219313|hu_hu|FALSE|FALSE (ssRNA)
RNA: GGGAGUUCUACAGUCCGACGAUCGACUUCUUCCACUGAAAUGUACGCUUCUGUAGGCAGCCCUAGGUCCUUCGGCUUCACAUCAAUGAUGACCAAUACGGAAUUAGGACAGUAUCUUUUCAUGAGUUCGUUGAUGGCAAUGUCCAACAGAGGAUUGAGCAUCA
B4: chr2:5814250:5814251:-_ENSMUSG00000025816_ENSMUST00000102981|mus_hu|mus_mus_mus_hu_True|68_68 (ssRNA)
RNA: GGGAGUUCUACAGUCCGACGAUCUUCCUUUCCGGUUUCUGAAUUUCUGGUAGAACUGCACAGAAUGGUUUAAUAACUUCUAAAAAUUUGAUGCCCAUGGCUGCUGCUGGGGAGGCCCAGGGGGAAACCGCGGCCUCGGCGCUGCAACAGAGGAUUGAGCAUCA
B5: chr2:198351390:198351391:-_ENSG00000144381_ENST00000345042|hu_hu|hu_hu_hu_mus_False|38_68 (ssRNA)
RNA: GGGAGUUCUACAGUCCGACGAUCUCAUUCCCACCCUCCACAGAAAGGCUGCUUCUGAACUCUCAUGGUGGUGGCAAGCGCUACAGUCCUGAUGCUCACAGAAUAGUAGAGAUGCCUCAGUGAUUUAAGUUGAAAGCAGGACACCAACAGAGGAUUGAGCAUCA
B6: chrX:114868325:114868326:+_ENSG00000102024_ENST00000355899|hu_mus|FALSE|FALSE (ssRNA)
RNA: GGGAGUUCUACAGUCCGACGAUCGGGUGUAAGCUUCUUCUUAUUGAUUGCUCUCUCGUCAAUUGUAUCAGGAACUGAAAGGUUGAUCAUUUUGCAGAGCACGAUCCCAUCACCAACUGCUUUGAACAGGUCAUCAGUAUUUGGCAACAGAGGAUUGAGCAUCA
B7: chr10:70718461:70718462:-_ENSMUSG00000019927_ENSMUST00000020085|mus_hu|motif|central (ssRNA)
RNA: GGGAGUUCUACAGUCCGACGAUCGUAAAAAUCAAAUGGUUUCAUGGUACAAUGAAACAGUAAACAGUGCUCAAUUUACUGCGGAUGUUGAAAAAAACCUAGAUUUUACAGUACUCUGGUAUAUAUGAAAAUGUUUUUGAUUUUCAACAGAGGAUUGAGCAUCA
B8: chr4:148551591:148551592:-_ENSMUSG00000063077_ENSMUST00000060537|mus_hu|mus_mus_mus_hu_False|18_58 (ssRNA)
RNA: GGGAGUUCUACAGUCCGACGAUCACCUGACAAAAUUAAAUAUCCCUGUAAAUUAGACAAUAAGCAGCAGGCAACAAAGUCUAUGCUUUGGAAUAUGUGCCAGGAAAAGUCAUCUUGUAGACCCCAAUCAAGAGACAGUUCACACAACAGAGGAUUGAGCAUCA
B9: 29379763_29386992_1971_3pUTR_ENSG00000159023_ENST00000356093|human|control|control (ssRNA)
RNA: GGGAGUUCUACAGUCCGACGAUCAACAUUAAAUUGCUAUGUCUGAUAUAAAUGUUUUCACCAUCUAGUCUUUCUCUCUUUUUCUUCCAUGCUUCUGUGGGCUCUGGCUCAGCUUGCUCAGGUGGCUCGUCUUCCUUUUUCACUCAACAGAGGAUUGAGCAUCA
B10: chr13:55314627:55314628:+_ENSMUSG00000021488_ENSMUST00000099490|mus_hu|motif|central (ssRNA)
RNA: GGGAGUUCUACAGUCCGACGAUCUACUGGUACUGGAAUCUGGAUCAUCCGAAAGGGCUGUCCUUGUCUUCAGGGGCAUCGGAAUUCACUGGAUUGGAAAAGGGCAGCAGACAAUUUCUUCUGGGUAGUUCACAGGUCUGAUCCCAACAGAGGAUUGAGCAUCA
B11: chr7:151048522:151048523:+_ENSG00000013374_ENST00000566856|hu_mus|hu_hu_hu_mus_True|18_88 (ssRNA)
RNA: GGGAGUUCUACAGUCCGACGAUCCUGUUUCUUAUUUAUUACGAUCUUGAUAUAAUUUUCUUGAAAUCCGAAAGUUUCAGCUAUUUGACACCUCAGGUCUCUACCAGUGACAUGCAAUCGGGUCUCCAACAAGCUUUUCUUAUCCAACAGAGGAUUGAGCAUCA
B12: chr12:111931289:111931290:-_ENSMUSG00000021270_ENSMUST00000094361|mus_mus|FALSE|FALSE (ssRNA)
RNA: GGGAGUUCUACAGUCCGACGAUCGAUAAAAUAGAUGUGCUUCUGGUUUUCCUUCAUUCUGGUACAGUAGUCCUUCAGAGAAACCAUCUCGUCCCCAGAAGCAGAUGUGUAGUACCGCAACAGCUCUGAAAGCUUCUUCCGAUUCAACAGAGGAUUGAGCAUCA
B13: chr11:29606707:29606708:+_ENSMUSG00000020458_ENSMUST00000102843|mus_mus|FALSE|FALSE (ssRNA)
RNA: GGGAGUUCUACAGUCCGACGAUCCAUGGCUGACUCUCCUUUUGGGGAGCCAUUGAAAGAUGAUCCCAUUUCUGAGUAUUCUAAUACUGAAAACUCUGCUGACUCUCUAUUUACAAAUGGAUUUGUUGCCCUCUCUGGCAAUUCCAACAGAGGAUUGAGCAUCA
B14: chr17:48526647:48526648:-_ENSMUSG00000023994_ENSMUST00000046719|mus_mus|FALSE|FALSE (ssRNA)
RNA: GGGAGUUCUACAGUCCGACGAUCCCAAGUGAGCCCCUCUGGCCUCUGUGCCCACGCCGGCAGGGCUGGGAGCCGACUGCAAUGCAGCCAGAGUGGAAACCCAAGCAUCUGCAUCAAAGGAAAGAAAACUCAAACUUGCCUACGCAACAGAGGAUUGAGCAUCA

Each binder was assayed against T1, UNK ZnF1-3 (human, UniProt Q9C0B0 31-174) (assay: nsRBNS (natural sequence RNA bind-n-seq); RBNS binding buffer (assumed for nsRBNS): 25 mM Tris pH 7.5, 150 mM KCl, 3 mM MgCl2, 0.01% Triton X-100, 500 ug/ml BSA, 20 U/ml SUPERase-In, 4 C; UNK is unkempt and MSI1 is Musashi-1; names of the RNAs are library labels; protein concentration not given here; high values mean tight binding).
T1 sequence: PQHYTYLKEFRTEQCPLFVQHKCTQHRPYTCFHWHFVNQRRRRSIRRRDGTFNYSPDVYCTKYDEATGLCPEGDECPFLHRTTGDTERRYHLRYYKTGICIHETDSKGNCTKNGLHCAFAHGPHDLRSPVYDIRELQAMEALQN
B1 showed a binding signal of 0.867 enrichment R. Binder B2 has a binding signal of 1.01 enrichment R. For B3, the binding signal was 0.879 enrichment R. For B4, the binding signal was 1.59 enrichment R. B5 gave a binding signal of 1.44 enrichment R. With B6 the binding signal was 0.423 enrichment R. In the case of B7, the binding signal is reported as 0.616 enrichment R. B8 gave a binding signal of 1.76 enrichment R. In the case of B9, the binding signal is reported as 0.579 enrichment R. For B10, the binding signal was 0.941 enrichment R. Work on B11 yielded a binding signal of 0.861 enrichment R. Binder B12 has a binding signal of 0.528 enrichment R. B13 was tested, and the binding signal was 0.848 enrichment R. Work on B14 yielded a binding signal of 0.974 enrichment R.
